# Laboratory results reported in PubChem BioAssay AID624417 (National Center for Advancing Translational Sciences (NCATS), 2012).
# Several values for one entry are separate records, joined by “and”; a condition that tells them apart may be missing. Equal entries are not always repeated. The campaign covered roughly 410,000 compounds. About 6,400 (1.6%) were called active. Inconclusive means that the source gave no clear call. Such entries were picked first, then a sample of the others. Calls follow the shape of the dose curve; as a rule, active = well fitted inhibition curve with a large enough effect; inconclusive = small, poorly fitted or top-dose-only effect; inactive = no such curve, though single readings can be large or run the other way. A potency beside an inconclusive call is a rough fit, not a confirmed value.
# Biological target: Glucagon-like peptide 1 receptor (Homo sapiens) (UniProt P43220)
# Chain of UniProt P43220 (P43220 whole entry, looked up): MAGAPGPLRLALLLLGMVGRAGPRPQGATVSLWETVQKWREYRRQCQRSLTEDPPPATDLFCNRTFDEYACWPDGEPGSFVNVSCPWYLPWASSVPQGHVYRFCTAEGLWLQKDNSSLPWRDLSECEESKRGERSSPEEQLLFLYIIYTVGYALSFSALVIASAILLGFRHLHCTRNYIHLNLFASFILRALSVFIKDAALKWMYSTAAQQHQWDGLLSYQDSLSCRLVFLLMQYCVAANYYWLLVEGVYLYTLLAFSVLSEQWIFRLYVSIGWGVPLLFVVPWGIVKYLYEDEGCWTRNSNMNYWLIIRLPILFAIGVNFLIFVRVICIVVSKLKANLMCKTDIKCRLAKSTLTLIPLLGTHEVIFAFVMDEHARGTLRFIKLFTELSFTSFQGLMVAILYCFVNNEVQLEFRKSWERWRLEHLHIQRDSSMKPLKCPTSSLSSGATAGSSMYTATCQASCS
# Assay: qHTS of GLP-1 Receptor Inverse Agonists (Inhibition Mode); also: nearly all actives have a fitted effect of over 55% in size
# Settings: HEK293 GLP-1R CRE-luciferase, luminescence, 24 h, GLP-1R form is constitutively active; activity change, negative = inhibition: at 38.3 µM (top of the series) unless noted
# Outline: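 HEK293 cells stably co-expressing constitutively active GLP-1R and a cAMP-responsive luciferase reporter were seeded in DMEM with 10% Nu serum, given compounds after 12 h, and incubated 24 h at 37 deg C. Luminescence was then read.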
# % is scaled to controls: 0 for no effect and ±100 for the full control effect; potency is read from the fitted curve at half-maximal effect; tags tell the direction and shape of the fitted curve.
Compound,Potency,"activity change, negative = inhibition"
Cc1c(-c2nsc(NC(=O)c3cccc(Cl)c3)n2)nnn1-c1ccccc1C(F)(F)F,"inconclusive: 3.16 µM [inhibitor, partial curve, poor fit]",
Cc1ccc(CS(=O)Cc2ccc(C(=O)NC3CCC(C)CC3)o2)cc1 (configuration not stated),"inconclusive: 28.2 µM [inhibitor, single point]",
Cc1ccc(SCc2noc(C(=O)NC(C)C)c2C(=O)O)cc1C,"inconclusive: 28.2 µM [inhibitor, single point]",
CCOC(=O)Cc1csc(NC(=O)Cc2ccc(Cl)cc2)n1,"inconclusive: 31.6 µM [inhibitor, partial curve, poor fit]",
Cc1ccccc1NC(=O)C(=O)NCCc1c[nH]c2ccccc12,"inconclusive: 31.6 µM [inhibitor, single point]",
CC(C)CNC(=O)C1(C)CCCCCN1Cc1ccccc1-c1ccccc1 (configuration not stated),"inconclusive: 28.2 µM [inhibitor, single point]",
Cc1cc(C)cc(N=C2NC(=O)/C(=C/c3cccs3)S2)c1,"inconclusive: 28.2 µM [inhibitor, single point]",
CCOc1ccc(-c2nc(N)nc(C)c2-c2ccc(Cl)cc2)c(O)c1,"inconclusive: 14.1 µM [inhibitor, single point]",
Cc1cc(C)nc(NC(=O)c2c(Cl)cccc2Cl)n1,,inactive: 6.78%
CCc1nc(C)c(-c2ccccc2)c(=O)[nH]1,,inactive: 5.34%
COc1cccc(-c2nc(SCC(=O)NC3CCCC3)c(-c3ccccc3)[nH]2)c1,"inconclusive: 3.55 µM [inhibitor, partial curve, poor fit]",
COc1ccccc1NC(=O)c1ccccc1NS(=O)(=O)c1cccs1,"inconclusive: 1.78 µM [inhibitor, partial curve, poor fit]",
COc1ccccc1-c1c(C)nn2c(N3CCCCCC3)cc(C)nc12,"inconclusive: 28.2 µM [inhibitor, single point]",
CCOc1ccc(-c2nc(SCC(=O)NC3CCCC3)c(-c3ccccc3)[nH]2)cc1OC,"inconclusive: 1.41 µM [inhibitor, single point]",
CCc1ccccc1-n1ncc(C(=O)Nc2ccccc2OC)c1C,"inconclusive: 7.08 µM [inhibitor, single point]",
CCOc1ccc(NC(=O)/C=C\C(=O)N(c2ccc(C(C)C)cc2)C(C(=O)NCc2ccco2)c2ccc(F)cc2)cc1 (configuration not stated),"inconclusive: 10 µM [inhibitor, partial curve, poor fit]",
Cc1cc(C)c(OCC(=O)Nc2ccc(S(=O)(=O)N3CCOCC3)cc2)c(C)c1,"inconclusive: 11.2 µM [inhibitor, partial curve]",
CCCCC[C@@H](C)N1C[C@@H](COCc2ccccc2)Oc2cc(N3CCC[C@H]3C(N)=O)ccc2S1(=O)=O,"inconclusive: 11.2 µM [inhibitor, single point]",
CCC(CC)C(=O)N(C)c1c(C)nc2c(OCC=C(C)C)cccn12,"inconclusive: 11.2 µM [inhibitor, partial curve, poor fit]",
CC(C)Oc1ccc(CNC(=O)CC(c2ccccc2)c2cc(Cl)ccc2O)cc1 (configuration not stated),"inconclusive: 7.94 µM [inhibitor, partial curve, poor fit]",
COc1ccccc1NC(=O)NCc1cccn1Cc1ccccc1,"inconclusive: 28.2 µM [inhibitor, single point]",

Compound,Potency,"activity change, negative = inhibition"
CC(C(=O)NN=C(c1ccccc1)c1ccccc1)N1CCCC1 (configuration not stated),"inconclusive: 31.6 µM [inhibitor, single point]",
CCCC1=Nc2cc(C(=O)NCCc3ccccc3)ccc2Sc2ccc(C)cc21,"inconclusive: 2.24 µM [inhibitor, full curve, poor fit]",
CC1CCC(NC(=O)c2cccn2C)CC1 (configuration not stated),"inconclusive: 11.2 µM [inhibitor, single point]",
Cc1cc(Br)ccc1NC(=O)c1ccc(NS(=O)(=O)c2c(C)noc2C)cc1,"inconclusive: 8.91 µM [inhibitor, partial curve, poor fit]",
COc1cccc(NC(=O)CN2CCN(CC(=O)Nc3ccccc3Cl)CC2)c1,"inconclusive: 11.2 µM [inhibitor, partial curve, poor fit]",
C/C(=N\O)C(C)(C)Nc1cccc(Br)c1,"inconclusive: 10 µM [inhibitor, partial curve, poor fit]",
O=C(CSCc1ccc(Cl)cc1)Nc1ccccc1O,"inconclusive: 31.6 µM [inhibitor, single point]",
O=S(=O)(c1ccc(Cl)cc1)N1CCCN(c2ccc(C(F)(F)F)cn2)CC1,"inconclusive: 28.2 µM [inhibitor, single point]",
O=C(NC1CCN(C(=S)NCc2ccco2)CC1)NC12CC3CC(CC(C3)C1)C2,"inconclusive: 10 µM [inhibitor, single point]",
Cn1c(/C=C/c2ccc([N+](=O)[O-])o2)nc2ccccc2c1=O,"inconclusive: 3.55 µM [inhibitor, full curve, poor fit]",
O=C(CC(c1ccccc1)c1cc(Br)ccc1O)N1CCCCC1 (configuration not stated),active: 10 µM,
COc1ccc(CNCCC(c2ccccc2)c2ccc3c(c2)OCO3)cc1 (configuration not stated),"inconclusive: 10 µM [inhibitor, partial curve, poor fit] and inconclusive: 12.6 µM [inhibitor, single point]",
CN(Cc1ccccn1)Cc1cn(Cc2ccccc2)nc1-c1ccc2c(c1)OCO2,"inconclusive: 28.2 µM [inhibitor, single point]",
O=C(CN1CCN(S(=O)(=O)c2cccc(Br)c2)CC1)NCCc1cccs1,"inconclusive: 28.2 µM [inhibitor, single point]",
CC(C)Sc1ncnc2c1oc1ccccc12,,inactive: 5.63%
CN(CC(=O)Nc1ccc(Cl)c(C(F)(F)F)c1)C(=O)C1CCN(C(=O)c2ccc(Cl)cc2)CC1,"inconclusive: 8.91 µM [inhibitor, partial curve, poor fit]",
CS(=O)(=O)N1CCc2cc(C(=O)N3CCN(c4ccccc4)CC3)ccc21,inactive,
CCC(C)Cn1cnc2c(Sc3c([N+](=O)[O-])ncn3C)nc(N)nc21 (configuration not stated),"inconclusive: 28.2 µM [inhibitor, single point]",
Clc1cccc(Cl)c1/C=N/Nc1c(Cl)cncc1Cl,"inconclusive: 1.78 µM [inhibitor, full curve, poor fit]",
Cc1noc(C)c1C(=O)Nc1nc2ccccc2s1,,inactive: 40.8%
NC(=O)c1cccn1Cc1cccc(Cl)c1,,inactive: 0%

Compound,Potency,"activity change, negative = inhibition"
CCCc1nnc(NC(=O)c2cc(=O)c3cc(Cl)ccc3o2)s1,,inactive: 15.5%
Cc1ccc(C(C)NC(=O)c2cccs2)cc1 (configuration not stated),"inconclusive: 3.16 µM [inhibitor, partial curve, poor fit]",
CC(C(=O)Nc1ccc2c(c1)OCCO2)N(C)Cc1c(F)cccc1Cl (configuration not stated),"inconclusive: 10 µM [inhibitor, single point]",
Cc1noc(C)c1COC(=O)c1cccc(S(=O)(=O)N2c3ccccc3CC2C)c1 (configuration not stated),active: 14.1 µM,
CC(NC(=O)Nc1ccc(F)cc1)c1ccc2c(c1)OCO2 (configuration not stated),"inconclusive: 8.91 µM [inhibitor, partial curve, poor fit]",
CCCS(=O)(=O)c1c(S(=O)(=O)CCC)c2c3ccccc3ccn2c1C(=O)OC,"inconclusive: 12.6 µM [inhibitor, single point]",
Cc1ccccc1N=C1NN=C(c2ccccc2F)CS1,"inconclusive: 12.6 µM [inhibitor, partial curve, poor fit]",
O=C(C1=NN[C@@H]2C(=O)N(c3cccc(C(F)(F)F)c3)C(=O)[C@H]12)C(c1ccccc1)c1ccccc1,"inconclusive: 11.2 µM [inhibitor, partial curve]",
Cc1ccc(C=C2C(Cl)=C(Cl)C(Cl)=C2Cl)cc1,,inactive: -0.579%
Cc1cc2oc(C(=O)Nc3c(C)n(C)n(-c4ccccc4)c3=O)c(C)c2cc1C,"inconclusive: 20 µM [inhibitor, partial curve, poor fit]",
CC(C)c1ccc(/C=N/NC(=O)c2cc(-c3cccc([N+](=O)[O-])c3)n[nH]2)cc1,"inconclusive: 2.51 µM [inhibitor, full curve, poor fit]",
CCC(=O)NC(c1ccc(C)cc1)c1cc([N+](=O)[O-])c2cccnc2c1O (configuration not stated),"inconclusive: 28.2 µM [inhibitor, single point]",
COc1ccccc1CNC(=O)CCC1N=C2c3ccccc3N=C(SCc3ccc(C)cc3)N2C1=O (configuration not stated),"inconclusive: 28.2 µM [inhibitor, single point]",
COc1ccccc1/C=C(/C(=O)OCC(=O)Nc1ccccc1C)c1ccccc1,"inconclusive: 12.6 µM [inhibitor, partial curve]",
O=C1c2ccccc2NC(c2cccc([N+](=O)[O-])c2)N1O (configuration not stated),"inconclusive: 14.1 µM [inhibitor, single point]",
COc1ccc(C(=O)Nc2ccc3c(c2)nc(CN2CCCC2)n3C)cc1,,inactive: -14.7%
CCCCSc1oc(-c2ccco2)nc1S(=O)(=O)c1ccccc1,"inconclusive: 28.2 µM [inhibitor, single point]",
CC1(C(=O)NS(=O)(=O)c2ccc(C#N)cc2)CCN1C(=O)Cc1ccc(-c2ccccc2)cc1 (configuration not stated),,inactive: -8.01%
CSc1nnc(N2C(=O)C(O)=C(C(=O)c3ccco3)C2c2ccccc2)s1 (configuration not stated),,inactive: -3.82%
Cc1nc2scc(C)n2c(=O)c1S(=O)(=O)N1CCN(c2cccc(C(F)(F)F)c2)CC1,"inconclusive: 11.2 µM [inhibitor, partial curve, poor fit] and inconclusive: 31.6 µM [inhibitor, single point]",
